Experimental data reported in PubChem BioAssay AID686971 (National Center for Advancing Translational Sciences (NCATS), 2013).
The campaign covered roughly 360,000 compounds. About 7,500 (2.1%) were called active. The shares of active, inactive and inconclusive entries below differ from those in the screen. Calls come from the whole dose curve; as a rule, active = well fitted cell-killing curve with a large enough effect; inconclusive = small, poorly fitted or top-dose-only effect, or effect the other way, or another doubt; inactive = no such curve, though single readings can be large or run the other way. Potencies of inconclusive entries are left out as doubtful fits.

Assay: qHTS for induction of synthetic lethality in tumor cells producing 2HG: qHTS for the HT-1080-IDH1KD cell line;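 for activity, negative = toxicity: 0% = DMSO wells and -100% = cell-free medium wells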
Conditions: HT-1080 IDH1 knockdown viability, ATP luminescence, 48 h; activity, negative = toxicity: at 46.1 µM (top of the series) unless noted
Summary of the method: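 Cytotoxicity counter-line: IDH1KD HT-1080, 48 h, CellTiter-Glo. Curves classed by r2, magnitude and activity.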
Potency is the fitted concentration of half-maximal effect; tags give direction and shape of the fitted curve.

| SMILES | Potency | activity, negative = toxicity |
| --- | --- | --- |
| Cc1ccc(C(=O)Nc2nc(C(C)(C)C)cs2)s1 | inconclusive [cytotoxic, partial curve, poor fit] | – |
| COc1cccc(NC(=O)CN(C)C(=O)[C@@H]2CCCN2C(=O)c2cccs2)c1 | inconclusive [cytotoxic, partial curve] | – |
| CC(=NNC(=S)Nc1ccccc1)c1ccccn1 | inconclusive [cytotoxic, full curve, poor fit] | – |
| O=C(CSc1nc2ccccc2c(=O)n1CCCN1CCOCC1)c1c[nH]c2ccccc12 | inconclusive [cytotoxic, single point] | – |
| Cc1oc2c(c1C(=O)N1CCOCC1)C(=O)c1ccccc1C2=O | active: 9.2 µM | – |
| Cc1c(N/N=C(\C#N)C(=O)c2ccccc2)c(=O)n(-c2ccccc2)n1C | inconclusive [cytotoxic, full curve] | – |
| CC(=O)N1CCN(c2ccc(Nc3ncnc4c3oc3ccccc34)cc2)CC1 | inconclusive [cytotoxic, single point] | – |
| CC[N+](CC)(CC#Cc1ccccc1)CC#Cc1ccccc1 | – | inactive: -27.9% |
| C=C1CCN(c2ccc(C(=O)NCc3ccc(C)cc3)cc2[N+](=O)[O-])CC1 | – | inactive: -0.426% |
| Cc1cc(C)nc(SCC(=O)Nc2ncc(Cc3ccc(Cl)c(Cl)c3)s2)n1 | inconclusive [cytotoxic, single point] | – |
| CCC[C@@H](CN[C@@H](CNC)[C@H](C)CC)NCC1CCC(C(C)(C)C)CC1 (some centres undefined) | inconclusive [cytotoxic, single point] | – |
| O=C(CN(Cc1ccccc1)C(=O)CCl)c1cccc(Br)c1 | active: 16.4 µM | – |
| CCOC(=O)C1(CCOc2ccccc2)CCN(Cc2cc(OC)c3c(c2)OCO3)CC1 | active: 18.4 µM | – |
| O=C(CSc1nc(-c2ccccc2)c(-c2ccccc2)[nH]1)Nc1ccc2c(c1)OCO2 | inconclusive [cytotoxic, single point] | – |
| COC1=C(OC)C(=O)C(Sc2ccc3ccccc3c2)=CC1=O | active: 16.4 µM | – |
| Cc1cccc(-n2ncc3c(NCc4ccco4)ncnc32)c1 | inconclusive [cytotoxic, partial curve] | – |
| Nc1nc(N)c(N=O)c(OCC2CCCCC2)n1 | active: 18.4 µM | – |
| O=C(NCCCN1CCCC1)c1ccc2c(c1)N(Cc1cccc(Cl)c1)C(=O)c1ccccc1S2=O (centres undefined) | inconclusive [cytotoxic, single point] | – |
| COc1cc(C(=O)NNC(=O)Nc2ccc([N+](=O)[O-])cc2)cc(OC)c1OC | inconclusive [cytotoxic, single point] | – |
